Two compounds from PubChem BioAssay AID1963450 (Molecular Pharmacology Branch, DTP, NCI, 2024) can be followed below.

The test system of this assay is 556581-035-R-J1-PDC complex spheroid growth. In words: Anticancer human tumor 556581-035-R-J1-PDC patient-derived ovarian carcinoma cell line growth inhibition [Asc]. The settings on record: stronger effect = lower value. How it is done:
Multicellular complex tumor spheroid response to apoptosis pathway targeting inhibitors Alrizomadlin, Pelcitoclax, and Dasminapant in combination with a variety of drugs and investigational agents in selected tumor cell lines
The MDM2 inhibitor alrizomadlin, the Bcl-2/Bcl-xL inhibitor pelcitoclax, and the IAPs inhibitor dasminapant were evaluated both individually and in combination with standard of care and investigational anticancer small molecules within a complex spheroid model of solid tumors. . Complex spheroids include a stromal component modeled by human endothelial cells (HUVEC) and fibroblasts modeled by human mesenchymal stem cells (MSCs). The concentration ranges selected for each drug and investigational agent were based upon clinically achievable concentrations if the clinical Cmax of the agent was known.
Compounds. The drugs and investigational agents: alrizomadlin (APG-115; NSC831270), pelcitoclax (APG-1252; NSC835773), dasminapant (APG-1387;NSC834197), TAK-243 (NSC785004), copanlisib (NSC809693), olaparib (NSC753686), talazoparib (NSC767125), cobimetinib (NSC 768068), eltanexor (KPT-8602, NSC 794443), abemaciclib (NSC 768073), sotorasib (NSC818433), adagrasib (NSC 831453), MRTX-1133 (NSC 836407), Iadademestat (ORY1001, NSC 806812), and RMC-4630 (NSC839698), were obtained from the NCI Developmental Therapeutics Program Chemical Repository. The FDA-approved anticancer drug set is available from the Developmental Therapeutics Program at https://dtp.cancer.gov/organization/dscb/obtaining/available plates.htm. […] The stock solutions were prepared in dimethyl sulfoxide (DMSO, Sigma-Aldrich, St. Louis, MO, cat. D2650) at 800-fold the tested concentration and stored at -70 degrees C prior to their use. All drugs and investigational agents were tested over a range starting from a high concentration at or near the clinical Cmax and decreasing in half-log increments. If the clinical Cmax for an agent had not been determined, the highest concentration tested was 10 microM.
The patient-derived cancer (PDC) cell lines include five colon adenocarcinomas: 186277-243-T-J2-PDC, 616215-338-R-J1-PDC, 439559-082-T-J2-PDC, 463943-066-T-J2-PDC, and 519858-162-T-J1-PDC; three pancreatic carcinomas: 323965-272-R-J2-PDC, 521955-158-R6-J3-PDC, and 521955-158-R2-J5-PDC; two uterine sarcomas: 327498-152-R-J2-PDC and 993429-296-R-J1-PDC; two rhabdomyosarcomas: 755483-174-R-J1-PDC and 772245-204-R-J1-PDC; two soft tissue sarcomas: 126254-015-R-J1-PDC and 494315-158-R-J1-PDC; two malignant fibrous histiocytomas: 317291-083-R-J1-PDC and 596521-263-R-J1-PDC; two breast carcinomas: 171881-019-R-J1-PDC and 885512-296-R-J2-PDC; and one ovarian carcinoma: 6556581-035-R-J-PDC were obtained from the NCI PDMR, (https://pdmr.cancer.gov). The established cell lines HSSY-2 synovial sarcoma (RRID:CVCL 8719), SYO-1 synovial sarcoma (RRID:CVCL_7146), MPNST malignant peripheral neural sheath tumor were obtained from the Sloan Kettering Institute. The following established cell lines were purchased from the American Type Culture Collection (ATCC, Manassas, VA), Sor the received from the NCI repository:, PANC-1 pancreatic carcinoma (CRL-1469, RRID:CVCL_0480), OVCAR-5 ovarian carcinoma (RRID:CVCL_1628), OVCAR-8 ovarian carcinoma (RRID:CVCL_1629), , MCF-7 breast carcinoma (CRL-12584, RRID:CVCL_0031), MDA-MB-231 breast carcinoma (CRL-12532, RRID:CVCL_0062), NCI-H1876 small cell lung carcinoma (CRL-5902, RRID:CVCL_1503), NCI-H510A small cell lung carcinoma (HTB-184, RRID:CVCL_1565), NCI-H1417 (CRL-5869, RRID:CVCL_1469), and NCI-H196 small cell lung carcinoma (CRL-5823, RRID:CVCL_1509). Dr. Peter Houghton (Greehey Children's Cancer Research Institute, University of Texas Health Science Center, San Antonio, TX) provided Rh-18 rhabdomyosarcoma (RRID:CVCL_1659). Pooled donor human umbilical vein endothelial cells (HUVEC, Lonza, cat. CC-2519) and human mesenchymal stem cells (hMSC, Lonza, cat. PT-2501) were purchased from Lonza (Walkersville, MD).
Cell Culture. […]

Not every entry of the source has a single result; some have several. Only these are listed. The source may hold further records. The records of an entry are repeats (runs, samples, wells, individuals or studies). Signs of the kind (2×) give the number of equal values in this list. Dates in brackets are months of testing.
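Note: spheroids exposed to agents for 7 days before viability read.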

Regarding `CCN1C(C(=O)NC23CCC(C(=O)O)(CC2)CC3)C(c2cccc(Cl)c2F)C2(C(=O)Nc3cc(Cl)ccc32)C12CCCCC2` (stereo not drawn), the viability, T/C (compound alone 0.03 µM) is 103 (2×), 114, 82.9, 107, 92.6, 111 (2×), 79.5, 95, 96.6, 92, 94.1, 100, 101%; the viability, T/C (compound alone 0.0949 µM) was 94.9, 84, 109, 86.8, 102, 93.8, 93.2, 66.7, 92.4, 105, 111, 99.5, 70.1, 77.5, 108%; the viability, T/C (compound alone 0.3 µM) is 99, 105, 117, 86.5, 104, 88, 89.8, 81.3, 81.5, 92.8, 103, 84.8, 90.7, 110, 99.3%; the viability, T/C (compound alone 0.949 µM) is given as 88.8, 117, 86.5, 91.8, 96.3, 95.3, 81.5, 106, 88, 104, 107, 78.3, 84.9, 96.1%; the viability, T/C (compound alone 3 µM) was 93.4 (2×), 99.7, 93.5, 80.4, 88.5, 85.1, 84.6, 76, 88.2, 90.5, 75, 90, 80.8, 108%.
Turning to `CNC(C)C(=O)NC1CN(S(=O)(=O)c2cccc(S(=O)(=O)N3CCC4CCC(C(=O)NC(c5ccccc5)c5ccccc5)N4C(=O)C(NC(=O)C(C)NC)C3)c2)CCC2CCC(C(=O)NC(c3ccccc3)c3ccccc3)N2C1=O` (stereo not drawn), the viability, T/C is, setting by setting: (compound alone 0.01 µM) 76.6, 95.6, 92.6, 82, 88.8, 72.6, 69, 74, 84.5, 81.7, 96.8, 84.6, 77.3% [2022-10] and 102% [2022-11]; (compound alone 0.1 µM) 66.4, 82.4, 64.4, 69.5, 75.1, 70.8, 51.9, 76.5, 83.5, 79.9, 73.9, 81.7, 69.6% [2022-10] and 83.2% [2022-11]; (compound alone 1 µM) 61.1, 50.7, 85.2, 73.9, 60.1, 69.8, 66.2, 75.8, 68.6, 73.6, 78.5, 75.5, 67% [2022-10] and 75.3% [2022-11].
